Measurements published in the supplement of paper PMC10369915.
The list shows a part of the results. No stated cut-off is given here; in the data, active = 3.2 or more and inactive = the rest. Most of these values are background signal.

B1: ATM_Y332_Y332C (peptide)
chain: GSRGKCSSGFR
B2: ATR_Y317_V316I (peptide)
chain: NIEPIYLNMLL
B3: ATM_Y2019_G2023R (peptide)
chain: EPDSLYGCGRG
B4: ATRX_Y204_YF (peptide)
chain: NCFKFYMSDDI
B5: ATP2C1_Y452_A450T (peptide)
chain: IRKTEYPFSSE
B6: ATM_Y332_S333F (peptide)
chain: GSRGKYFSGFR
B7: ATP7B_Y1078_L1083F (peptide)
chain: VAVTKYCKEEF
B8: ATRX_Y203_YF (peptide)
chain: KNCFKYFMSDD
B9: AVPR2_Y117 (peptide)
chain: CRAVKYLQMVG
B10: ATP7B_Y1078 (peptide)
chain: VAVTKYCKEEL
B11: ATRX_Y1849 (peptide)
chain: CKLYQYYLDHL
B12: ATP6V1A_Y374 (peptide)
chain: PADSGYPAYLG
B13: ATM_Y332_R337C (peptide)
chain: GSRGKYSSGFC
B14: ATP7A_Y1459_I1464V (peptide)
chain: DRIVNYSRASV
B15: ATP6V1B1_Y462 (peptide)
chain: INQGPYENRSV
B16: ATM_Y1915 (peptide)
chain: LAVVDYMRRQK
B17: ATP2A2_Y407_E412G (peptide)
chain: VNCHQYDGLVG
B18: ATRX_Y204_C200S (peptide)
chain: NSFKYYMSDDI
B19: ATP6V0D2_Y271 (peptide)
chain: NVADHYGVYKP
B20: ATP2A2_Y497 (peptide)
chain: KSMSVYCTPNK
B21: ATP7B_Y1078_A1074V (peptide)
chain: VVVTKYCKEEL
B22: ATP6V0A2_Y688 (peptide)
chain: VNRSGYTLIRK
B23: ATP2A2_Y407 (peptide)
chain: VNCHQYDGLVE
B24: ATP2A2_Y497_S495F (peptide)
chain: KSMFVYCTPNK
B25: ASS1_Y87_T91P_YF (peptide)
chain: LFEDRYLLGPS
B26: ATP13A2_Y50 (peptide)
chain: WRVIGYHVVVW
B27: AVPR2_Y117_G122D (peptide)
chain: CRAVKYLQMVD
B28: ATRX_Y1849_YF (peptide)
chain: CKLFQYFLDHL
B29: ATRX_Y204 (peptide)
chain: NCFKYYMSDDI
B30: ATM_Y1915_V1913G (peptide)
chain: LAVGDYMRRQK
B31: ATP13A2_Y50_G49S (peptide)
chain: WRVISYHVVVW
B32: ATP6V1A_Y374_YF (peptide)
chain: PADSGYPAFLG
B33: ATM_Y2969 (peptide)
chain: PLKALYLQQRP
B34: ATP6V0D2_Y271_G272R (peptide)
chain: NVADHYRVYKP
B35: ATP2C1_Y452 (peptide)
chain: IRKAEYPFSSE
B36: AVPR2_Y117_C112Y (peptide)
chain: YRAVKYLQMVG
B37: ATP5F1B_Y269_E274Q (peptide)
chain: KVALVYGQMNQ

Molecular target: SHP2 C-SH2 domain E139D
Test: enrichment score (SH2-bound / input frequency) (ratio); bacterial display of known human phosphotyrosine sites (pTyr-Var adds point mutants) read by sequencing; higher = stronger binding; tyrosines were phosphorylated by kinases first
Conditions: peptide library: pTyr-Var
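Further: displayed peptides selected on beads carrying the immobilized SH2 domain, with library peptides lacking any tyrosine serving as negative controls.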

| Binder | enrichment score |
| --- | --- |
| B1 | inactive: 0.698 |
| B2 | inactive: 0.623 |
| B3 | inactive: 0.662 |
| B4 | inactive: 0.954 |
| B5 | inactive: 1.01 |
| B6 | inactive: 0.637 |
| B7 | inactive: 1 |
| B8 | inactive: 1.12 |
| B9 | inactive: 0.653 |
| B10 | inactive: 0.941 |
| B11 | inactive: 1.06 |
| B12 | inactive: 0.97 |
| B13 | inactive: 1.21 |
| B14 | inactive: 0.804 |
| B15 | inactive: 0.61 |
| B16 | inactive: 0.16 |
| B17 | inactive: 0.956 |
| B18 | inactive: 0.812 |
| B19 | inactive: 0.589 |

| Binder | enrichment score |
| --- | --- |
| B20 | inactive: 0.456 |
| B21 | inactive: 1.13 |
| B22 | inactive: 0.439 |
| B23 | inactive: 0.967 |
| B24 | inactive: 0.86 |
| B25 | inactive: 0.859 |
| B26 | inactive: 1.9 |
| B27 | inactive: 0.705 |
| B28 | inactive: 2.95 |
| B29 | inactive: 1.1 |
| B30 | inactive: 0.348 |
| B31 | inactive: 2.63 |
| B32 | inactive: 0.496 |
| B33 | inactive: 1.42 |
| B34 | inactive: 0.52 |
| B35 | inactive: 0.889 |
| B36 | inactive: 0.83 |
| B37 | inactive: 0.905 |

Molecular target: SHP2 C-SH2 domain wild-type
Test: as above
Conditions: peptide library: pTyr-Var

| Binder | enrichment score |
| --- | --- |
| B1 | inactive: 0.703 |
| B2 | inactive: 0.914 |
| B3 | inactive: 0.812 |
| B4 | inactive: 1.02 |
| B5 | inactive: 1.08 |
| B6 | inactive: 0.609 |
| B7 | inactive: 0.891 |
| B8 | inactive: 0.979 |
| B9 | inactive: 0.687 |
| B10 | inactive: 1.05 |
| B11 | inactive: 1.26 |
| B12 | inactive: 1.1 |
| B13 | inactive: 1.02 |
| B14 | inactive: 1.09 |
| B15 | inactive: 0.57 |
| B16 | inactive: 0.351 |
| B17 | inactive: 0.982 |
| B18 | inactive: 0.725 |
| B19 | inactive: 0.714 |

| Binder | enrichment score |
| --- | --- |
| B20 | inactive: 0.66 |
| B21 | inactive: 1.2 |
| B22 | inactive: 0.345 |
| B23 | inactive: 0.704 |
| B24 | inactive: 0.705 |
| B25 | inactive: 1.04 |
| B26 | inactive: 1.97 |
| B27 | inactive: 0.783 |
| B28 | inactive: 2.9 |
| B29 | inactive: 1.05 |
| B30 | inactive: 0.27 |
| B31 | inactive: 2.62 |
| B32 | inactive: 0.795 |
| B33 | inactive: 1.25 |
| B34 | inactive: 0.821 |
| B35 | inactive: 0.732 |
| B36 | inactive: 1.02 |
| B37 | inactive: 0.943 |

Molecular target: SHP2 N-SH2 domain L43F
Test: as above
Conditions: peptide library: pTyr-Var

| Binder | enrichment score |
| --- | --- |
| B1 | inactive: 0.739 |
| B2 | inactive: 0.627 |
| B3 | inactive: 0.634 |
| B4 | inactive: 1.09 |
| B5 | inactive: 0.96 |
| B6 | inactive: 0.57 |
| B7 | inactive: 1.03 |
| B8 | inactive: 1 |
| B9 | inactive: 0.571 |
| B10 | inactive: 0.648 |
| B11 | inactive: 0.939 |
| B12 | inactive: 1 |
| B13 | inactive: 0.96 |
| B14 | inactive: 0.808 |
| B15 | inactive: 0.647 |
| B16 | inactive: 0.273 |
| B17 | inactive: 1.06 |
| B18 | inactive: 0.766 |
| B19 | inactive: 0.652 |

| Binder | enrichment score |
| --- | --- |
| B20 | inactive: 0.636 |
| B21 | inactive: 1.14 |
| B22 | inactive: 0.374 |
| B23 | inactive: 0.837 |
| B24 | inactive: 0.623 |
| B25 | inactive: 0.796 |
| B26 | inactive: 1.62 |
| B27 | inactive: 0.959 |
| B28 | inactive: 2.68 |
| B29 | inactive: 1.08 |
| B30 | inactive: 0.21 |
| B31 | inactive: 2.01 |
| B32 | inactive: 0.92 |
| B33 | inactive: 0.811 |
| B34 | inactive: 0.716 |
| B35 | inactive: 0.858 |
| B36 | inactive: 1.09 |
| B37 | inactive: 1.1 |

Molecular target: SHP2 N-SH2 domain T42A
Test: as above
Conditions: peptide library: pTyr-Var

| Binder | enrichment score |
| --- | --- |
| B1 | inactive: 0.643 |
| B2 | inactive: 0.716 |
| B3 | inactive: 0.671 |
| B4 | inactive: 0.727 |
| B5 | inactive: 0.832 |
| B6 | inactive: 0.575 |
| B7 | inactive: 0.707 |
| B8 | inactive: 0.934 |
| B9 | inactive: 1.41 |
| B10 | inactive: 0.945 |
| B11 | inactive: 0.836 |
| B12 | inactive: 0.697 |
| B13 | inactive: 1.01 |
| B14 | inactive: 0.952 |
| B15 | inactive: 0.577 |
| B16 | inactive: 0.284 |
| B17 | inactive: 0.882 |
| B18 | inactive: 0.694 |
| B19 | inactive: 0.629 |

| Binder | enrichment score |
| --- | --- |
| B20 | inactive: 0.648 |
| B21 | inactive: 0.852 |
| B22 | inactive: 0.291 |
| B23 | inactive: 0.699 |
| B24 | inactive: 0.755 |
| B25 | inactive: 0.736 |
| B26 | inactive: 1.54 |
| B27 | inactive: 1.43 |
| B28 | inactive: 2.26 |
| B29 | inactive: 0.757 |
| B30 | inactive: 0.277 |
| B31 | inactive: 2.01 |
| B32 | inactive: 0.616 |
| B33 | inactive: 1.21 |
| B34 | inactive: 0.63 |
| B35 | inactive: 0.727 |
| B36 | inactive: 3.01 |
| B37 | inactive: 0.809 |

Molecular target: SHP2 N-SH2 domain T52S
Test: as above
Conditions: peptide library: pTyr-Var

| Binder | enrichment score |
| --- | --- |
| B1 | inactive: 0.659 |
| B2 | inactive: 0.634 |
| B3 | inactive: 0.718 |
| B4 | inactive: 0.978 |
| B5 | inactive: 0.945 |
| B6 | inactive: 0.605 |
| B7 | inactive: 0.97 |
| B8 | inactive: 0.668 |
| B9 | inactive: 0.687 |
| B10 | inactive: 0.808 |
| B11 | inactive: 0.992 |
| B12 | inactive: 0.976 |
| B13 | inactive: 1.16 |
| B14 | inactive: 0.94 |
| B15 | inactive: 0.585 |
| B16 | inactive: 0.239 |
| B17 | inactive: 1.05 |
| B18 | inactive: 0.681 |
| B19 | inactive: 0.631 |

| Binder | enrichment score |
| --- | --- |
| B20 | inactive: 0.414 |
| B21 | inactive: 0.987 |
| B22 | inactive: 0.537 |
| B23 | inactive: 0.975 |
| B24 | inactive: 0.778 |
| B25 | inactive: 0.91 |
| B26 | inactive: 1.71 |
| B27 | inactive: 0.806 |
| B28 | inactive: 2.77 |
| B29 | inactive: 0.867 |
| B30 | inactive: 0.277 |
| B31 | inactive: 2.21 |
| B32 | inactive: 0.744 |
| B33 | inactive: 1.12 |
| B34 | inactive: 0.523 |
| B35 | inactive: 0.766 |
| B36 | inactive: 1.18 |
| B37 | inactive: 0.956 |

Molecular target: SHP2 N-SH2 domain wild-type
Test: as above
Conditions: peptide library: pTyr-Var

| Binder | enrichment score |
| --- | --- |
| B1 | inactive: 0.592 |
| B2 | inactive: 0.831 |
| B3 | inactive: 0.648 |
| B4 | inactive: 1.26 |
| B5 | inactive: 0.768 |
| B6 | inactive: 0.483 |
| B7 | inactive: 1.09 |
| B8 | inactive: 0.961 |
| B9 | inactive: 0.681 |
| B10 | inactive: 1.17 |
| B11 | inactive: 1.57 |
| B12 | inactive: 0.918 |
| B13 | inactive: 0.895 |
| B14 | inactive: 0.917 |
| B15 | inactive: 0.585 |
| B16 | inactive: 0.221 |
| B17 | inactive: 1.14 |
| B18 | inactive: 1.06 |
| B19 | inactive: 0.752 |

| Binder | enrichment score |
| --- | --- |
| B20 | inactive: 0.708 |
| B21 | inactive: 1.26 |
| B22 | inactive: 0.308 |
| B23 | inactive: 0.813 |
| B24 | inactive: 0.836 |
| B25 | inactive: 0.712 |
| B26 | inactive: 2.04 |
| B27 | inactive: 0.921 |
| B28 | inactive: 2.63 |
| B29 | inactive: 1.01 |
| B30 | inactive: 0.401 |
| B31 | inactive: 1.88 |
| B32 | inactive: 0.725 |
| B33 | inactive: 1.3 |
| B34 | inactive: 0.74 |
| B35 | inactive: 0.941 |
| B36 | inactive: 0.622 |
| B37 | inactive: 0.903 |
